Results on five proteins are retold here after patent US20210230570.

The target in series [1] is Antithrombin III (AT-III), plasma purified human, in complex with full-length unfractionated heparin (UFH).
In series [2] the target is plasma purified human AT-III (antithrombin III), in complex with low molecular weight heparin. Description: same assay; ratio of K0.5 to that of Catalyst Biosciences WT FIXa.

B1: FIXa D85N/D203N/F205T (protein)
chain 1: YNSGKLEEFVQGNLERECMEEKCSFEEAREVFENTERTTEFWKQYVDGDQCESNPCLNGGSCKDDINSYECWCPFGFEGKNCELNVTCNIKNGRCEQFCKNSADNKVVCSCTEGYRLAENQKSCEPAVPFPCGRVSVSQTSKLTR
chain 2: [about 250 residues with changes left out]
With B1, in series [1], the K0.5 worked out at 587 nM and the K0.5-mut/K0.5-wt worked out at 30.3.

B2: FIXa D85N/K228N (protein)
chain 1: YNSGKLEEFVQGNLERECMEEKCSFEEAREVFENTERTTEFWKQYVDGDQCESNPCLNGGSCKDDINSYECWCPFGFEGKNCELNVTCNIKNGRCEQFCKNSADNKVVCSCTEGYRLAENQKSCEPAVPFPCGRVSVSQTSKLTR
chain 2: [about 250 residues with changes left out]
In series [1], B2 came in with a K0.5 of 34 nM and a K0.5-mut/K0.5-wt of 1.7.

B3: FIXa-D85N/D104N/K106S/I251S (protein)
chain 1: YNSGKLEEFVQGNLERECMEEKCSFEEAREVFENTERTTEFWKQYVDGDQCESNPCLNGGSCKDDINSYECWCPFGFEGKNCELNVTCNIKNGRCEQFCKNSANNSVVCSCTEGYRLAENQKSCEPAVPFPCGRVSVSQTSKLTR
chain 2: [about 250 residues left out]
For B3, the K0.5-mut/K0.5-wt in series [2] was 1.1.

B4: FIXa A103N/N105S/K228N (protein)
chain 1: YNSGKLEEFVQGNLERECMEEKCSFEEAREVFENTERTTEFWKQYVDGDQCESNPCLNGGSCKDDINSYECWCPFGFEGKNCELDVTCNIKNGRCEQFCKNSNDSKVVCSCTEGYRLAENQKSCEPAVPFPCGRVSVSQTSKLTR
chain 2: [about 250 residues with changes left out]
In series [1], B4 came in with a K0.5 of 46 nM and a K0.5-mut/K0.5-wt of 2.4.

B5: FIXa D85N/I251S (protein)
chain 1: YNSGKLEEFVQGNLERECMEEKCSFEEAREVFENTERTTEFWKQYVDGDQCESNPCLNGGSCKDDINSYECWCPFGFEGKNCELNVTCNIKNGRCEQFCKNSADNKVVCSCTEGYRLAENQKSCEPAVPFPCGRVSVSQTSKLTR
chain 2: [about 250 residues with changes left out]
As for B5, the K0.5 in series [1] was found to be 19 nM.
